The supplement of paper PMC10185492
The list shows a part of the results. These are enrichments in a pooled selection; single values are uncertain.

Each substance was assayed on SARS-CoV-2 3CLpro (nsp5) (assay: substrate phage enrichment score (protease-eluted vs HEPES control, +1 offset) (ratio); higher = better cleaved substrate). Conditions: selection round: 3; protease elution time: 0.5 h.
Experimental: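 Random heptapeptide substrate phage display (M13 pIII fusion, heptapeptide between an N-terminal biotinylated AviTag GLNDIFEAQKIEWHE and pIII; phages immobilised on streptavidin) eluted by cleavage with 50 nM protease in 20 mM HEPES at 37 °C. Selected phages were NGS sequenced, and the enrichment score is (reads in protease sample + 1)/(reads in HEPES blank-selection control + 1).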

| Substance | substrate phage enrichment score |
| --- | --- |
| QSLDRSR | > 23 |
| GWSAEHR | 1.2 |
| RHFQGGS | 1 |
| RRQASQP | 3.17 |
| SAAAHHN | 1.07 |
| NEAAHHH | 0.764 |
| KTPSSLM | 14.5 |
| SAAAPHQ | 0.5 |
| HSQTPSE | 1.78 |
| RNVSNLQ | 10.5 |
| ALNPLLM | > 24 |
| RFRQEER | 7.67 |
| NRNQLSS | 7.33 |
| ATQKTRG | > 32 |
| RAAAHHQ | 0.635 |
| ACRCEIQ | > 32 |
| AESNSVP | 2.88 |
| RLNFKGY | 0.0444 |
| YAAAHHH | 1 |
| TSEALTR | > 23 |
| DRQRAMK | 2.9 |
| TFPRQVP | 2.88 |
| GPSLKYR | 1.83 |

| Substance | substrate phage enrichment score |
| --- | --- |
| SAEDCME | 6.17 |
| RDRANHA | 1.38 |
| IQHECQQ | > 27 |
| KRSCILQ | > 31 |
| CRCCQLG | > 25 |
| CGHLLKD | > 43 |
| RSATTNQ | 1.44 |
| SLNSPKP | 2.67 |
| CAHSYLQ | > 28 |
| GHQAVLQ | > 21 |
| AKLQCCT | > 62 |
| SHMPTQS | 0.024 |
| GTLNTAP | 2.67 |
| TARETGM | 5.05 |
| FQSRCTE | 12 |
| QHCHTVK | > 25 |
| DNAAAHH | 1.42 |
| PQAAHHH | 0.65 |
| KCWSRNG | > 22 |
| LMALPKA | 3.8 |
| GALYKPA | 2 |
| LGLPNLQ | > 39 |
| TYFQGGS | 1.7 |

| Substance | substrate phage enrichment score |
| --- | --- |
| SQIGDET | 2.25 |
| CVYRTNG | 1.4 |
| RAAAQHQ | 1.31 |
| SRDNSIP | 13 |
| TTRDPAR | > 33 |
| LMQSPSR | > 25 |
| QHGSIGR | 3 |
| VLIQCGP | 2.73 |
| RQRSCLQ | > 26 |
| SENAVAQ | 5.5 |
| SDQVNGQ | 10 |
| EAAHHHH | 0.723 |
| ATRLQAV | 56.5 |
| DVNVSEQ | > 29 |
| WRRTPAA | 10 |
| TSSRNPR | 1.56 |
| VHRNPLS | 2.83 |
| DRAAAHH | 0.714 |
| GEAAHHH | 0.76 |
| DPQRNSR | 2 |
| QQCPLDA | 14 |
| PGAELGR | 2.67 |
| SWCTVPA | > 29 |

| Substance | substrate phage enrichment score |
| --- | --- |
| SSAHHHH | 0.364 |
| ARVKLRN | 15 |
| ALLQANK | > 67 |
| DSAAAHH | 0.66 |
| GSMPQVP | > 24 |
| DACRHIG | 0.114 |
| STSAPKR | 2 |
| TSGYLSE | 28 |
| TKWSHQQ | 0.2 |
| CVAAHHH | 0.852 |
| LSPNDVK | > 31 |
| HTQRKHF | > 32 |
| SAATADY | > 24 |
| RDEKHTP | 0.278 |
| TQKSQWS | 9.33 |
| PHSKIQS | > 23 |
| EKSGPGS | 2.33 |
| SWRSVPG | > 38 |
| THWVNKD | > 25 |
| ACEQMWA | > 22 |
| PRCWIRP | 8.33 |
| QHEAALC | 4.86 |
| FENGQVK | 13.5 |

| Substance | substrate phage enrichment score |
| --- | --- |
| SGKVGQL | > 43 |
| KSTQPSK | 0.947 |
| RELHAGP | > 30 |
| RSWNTLS | 2.67 |
| PAGLMWQ | > 22 |
| LPCTEAS | 1.15 |
| SSRPTSA | 0.353 |
| ASPLNNN | 12 |
| TTSDRIL | 1.88 |
| DPRDGHL | 1.56 |
| RDWNPAM | 1.27 |
| PSQGLRP | > 32 |
| IDRPIHC | 0.2 |
| NGGLNPG | 4.44 |
| IERPSSR | > 24 |
| PIDESSG | 3.8 |
| QPVTNLQ | 16 |
| SLPSAHR | > 43 |
| PQVRCQE | 0.971 |
| TRAEAPH | 2.43 |
| RPVLQSH | > 29 |
| YHHHGAA | 0.294 |
| DASSAAT | 0.588 |

| Substance | substrate phage enrichment score |
| --- | --- |
| LSTIECQ | > 22 |
| EIDTCLQ | > 25 |
| SGDPVSR | > 47 |
| PGDWGRP | 0.1 |
| RACTLHS | > 58 |
| RPPELME | 1.04 |
| RMVVQLQ | > 57 |
| TPIEGRD | 1.7 |
| EDPARPS | 6.33 |
| TGHVILH | > 82 |
| CQLNPIE | > 21 |
| GAAAHQH | 0.778 |
| LIFRVVV | 2.1 |
| CQHNVGS | 0.857 |
| CYESEMR | > 33 |
| KSNEDLV | > 23 |
| FQSHEPN | > 33 |
| VYTGPRD | > 23 |
| NNAPVNI | 7 |
| VPAAHHH | 0.88 |
| SPYFQGG | 4.56 |
| LKSKRTP | 7 |
| NTGPVLR | > 40 |

| Substance | substrate phage enrichment score |
| --- | --- |
| WQSPRKD | 13.5 |
| FASGVKN | > 29 |
| LTAAHHH | 1.55 |
| ARPDRHR | > 24 |
| TRAAHHH | 0.39 |
| FNSSLQS | > 22 |
| KDGSSTV | 3 |
| TSLNQLC | 10 |
| VGAAAHH | 1.07 |
| SQKTYTR | 6.67 |
| GVLESVA | 1 |
| TTQDNER | 12 |
| YSAQRGK | 1.88 |
| FGLCELQ | > 152 |
| RETAHHH | 0.478 |
| HCNAQTA | 4.71 |
| VRQDAHR | 0.6 |
| HNTTSAG | 4.83 |
| TSAAAHH | 0.68 |
| DVVQTLQ | > 28 |
| HRAAHHH | 0.652 |
| APAAHHH | 1 |
| HCTNETG | 5.2 |

| Substance | substrate phage enrichment score |
| --- | --- |
| SQLRCHE | > 23 |
| TTIQHPM | 2.07 |
| KSHEVRQ | > 22 |
| GSIHRRP | 12.5 |
| LAAHHHH | 0.865 |
| SEPMCDR | > 31 |
| ITLQALG | 11.5 |
| ALRHRNG | 1.75 |
| QGGSAAA | 0.696 |
| TARKWAQ | 6 |
| RRGECRM | 15 |
| LNNLLSQ | > 29 |
| CDLSASR | 4.75 |
| LCGPSRS | > 27 |
| WDNLNKR | 1.27 |
| DIILKTG | > 35 |
| RPAAICQ | 5.45 |
| KPAVCPT | 0.833 |
| GRSSGPL | 1.62 |
| VSGQADR | > 34 |
| NTRSCPH | > 26 |
| RKHLCPP | 1 |
| STSPFKG | 0.471 |
